First the molecules themselves.
B1: AAGUAUG (DNA:RNA)
RNA: GGGAGACCGGAAUUCAGAUUGUCCAAGUAUGUUAAAUCCCGUCGUAGCCACCA
DNA 1: CAATCTGAATTCCGGTCTCCC
DNA 2: TGGTGGCTACGACGGGATT
B2: GAAGCUG (DNA:RNA)
RNA: B1 RNA with A25G, G27A, U28G, A29C
DNA 1: CAATCTGAATTCCGGTCTCCC
DNA 2: TGGTGGCTACGACGGGATT
B3: CGUUCAU (DNA:RNA)
RNA: B1 RNA with A25C, A26G, G27U, A29C, U30A, G31U
DNA 1: CAATCTGAATTCCGGTCTCCC
DNA 2: TGGTGGCTACGACGGGATT
B4: GCUCACA (DNA:RNA)
RNA: B1 RNA with A25G, A26C, G27U, U28C, U30C, G31A
DNA 1: CAATCTGAATTCCGGTCTCCC
DNA 2: TGGTGGCTACGACGGGATT
B5: CUAGGUU (DNA:RNA)
RNA: B1 RNA with A25C, A26U, G27A, U28G, A29G, G31U
DNA 1: CAATCTGAATTCCGGTCTCCC
DNA 2: TGGTGGCTACGACGGGATT
B6: UUCUCGU (DNA:RNA)
RNA: B1 RNA with A25U, A26U, G27C, A29C, U30G, G31U
DNA 1: CAATCTGAATTCCGGTCTCCC
DNA 2: TGGTGGCTACGACGGGATT
B7: GAUUGAG (DNA:RNA)
RNA: B1 RNA with A25G, G27U, A29G, U30A
DNA 1: CAATCTGAATTCCGGTCTCCC
DNA 2: TGGTGGCTACGACGGGATT
B8: CUGGUAC (DNA:RNA)
RNA: B1 RNA with A25C, A26U, U28G, A29U, U30A, G31C
DNA 1: CAATCTGAATTCCGGTCTCCC
DNA 2: TGGTGGCTACGACGGGATT
B9: AGUCGGA (DNA:RNA)
RNA: B1 RNA with A26G, G27U, U28C, A29G, U30G, G31A
DNA 1: CAATCTGAATTCCGGTCTCCC
DNA 2: TGGTGGCTACGACGGGATT
B10: CUCAGGC (DNA:RNA)
RNA: GGGAGACCGGAAUUCAGAUUGUCCCUCAGGCUUAAAUCCCGUCGUAGCCACCA
DNA 1: CAATCTGAATTCCGGTCTCCC
DNA 2: TGGTGGCTACGACGGGATT
B11: GACUCCU (DNA:RNA)
RNA: B1 RNA with A25G, G27C, A29C, U30C, G31U
DNA 1: CAATCTGAATTCCGGTCTCCC
DNA 2: TGGTGGCTACGACGGGATT
B12: AGCAGAA (DNA:RNA)
RNA: B10 RNA with C25A, U26G, G30A, C31A
DNA 1: CAATCTGAATTCCGGTCTCCC
DNA 2: TGGTGGCTACGACGGGATT
B13: ACUUGUC (DNA:RNA)
RNA: B1 RNA with A26C, G27U, A29G, G31C
DNA 1: CAATCTGAATTCCGGTCTCCC
DNA 2: TGGTGGCTACGACGGGATT
B14: AAGAAUA (DNA:RNA)
RNA: B1 RNA with U28A, G31A
DNA 1: CAATCTGAATTCCGGTCTCCC
DNA 2: TGGTGGCTACGACGGGATT
B15: AACGGCG (DNA:RNA)
RNA: B1 RNA with G27C, U28G, A29G, U30C
DNA 1: CAATCTGAATTCCGGTCTCCC
DNA 2: TGGTGGCTACGACGGGATT
B16: AGAGCUC (DNA:RNA)
RNA: B1 RNA with A26G, G27A, U28G, A29C, G31C
DNA 1: CAATCTGAATTCCGGTCTCCC
DNA 2: TGGTGGCTACGACGGGATT
B17: UAGUGAG (DNA:RNA)
RNA: B1 RNA with A25U, A29G, U30A
DNA 1: CAATCTGAATTCCGGTCTCCC
DNA 2: TGGTGGCTACGACGGGATT
B18: CUGUCUA (DNA:RNA)
RNA: B1 RNA with A25C, A26U, A29C, G31A
DNA 1: CAATCTGAATTCCGGTCTCCC
DNA 2: TGGTGGCTACGACGGGATT
B19: AAUUCAU (DNA:RNA)
RNA: B1 RNA with G27U, A29C, U30A, G31U
DNA 1: CAATCTGAATTCCGGTCTCCC
DNA 2: TGGTGGCTACGACGGGATT
B20: CCUGCAA (DNA:RNA)
RNA: B10 RNA with U26C, C27U, A28G, G29C, G30A, C31A
DNA 1: CAATCTGAATTCCGGTCTCCC
DNA 2: TGGTGGCTACGACGGGATT
B21: GGCAAAC (DNA:RNA)
RNA: B10 RNA with C25G, U26G, G29A, G30A
DNA 1: CAATCTGAATTCCGGTCTCCC
DNA 2: TGGTGGCTACGACGGGATT
B22: GGAGUAA (DNA:RNA)
RNA: GGGAGACCGGAAUUCAGAUUGUCCGGAGUAAUUAAAUCCCGUCGUAGCCACCA
DNA 1: CAATCTGAATTCCGGTCTCCC
DNA 2: TGGTGGCTACGACGGGATT
B23: CGGCUUA (DNA:RNA)
RNA: B22 RNA with G25C, A27G, G28C, A30U
DNA 1: CAATCTGAATTCCGGTCTCCC
DNA 2: TGGTGGCTACGACGGGATT
B24: UAGUUUC (DNA:RNA)
RNA: B1 RNA with A25U, A29U, G31C
DNA 1: CAATCTGAATTCCGGTCTCCC
DNA 2: TGGTGGCTACGACGGGATT
B25: GACUUUA (DNA:RNA)
RNA: B1 RNA with A25G, G27C, A29U, G31A
DNA 1: CAATCTGAATTCCGGTCTCCC
DNA 2: TGGTGGCTACGACGGGATT
B26: AAGAAUG (DNA:RNA)
RNA: B1 RNA with U28A
DNA 1: CAATCTGAATTCCGGTCTCCC
DNA 2: TGGTGGCTACGACGGGATT
B27: UCUCUCG (DNA:RNA)
RNA: B1 RNA with A25U, A26C, G27U, U28C, A29U, U30C
DNA 1: CAATCTGAATTCCGGTCTCCC
DNA 2: TGGTGGCTACGACGGGATT
B28: AUCGUAC (DNA:RNA)
RNA: B10 RNA with C25A, A28G, G29U, G30A
DNA 1: CAATCTGAATTCCGGTCTCCC
DNA 2: TGGTGGCTACGACGGGATT
B29: GAACGGA (DNA:RNA)
RNA: B22 RNA with G26A, G28C, U29G, A30G
DNA 1: CAATCTGAATTCCGGTCTCCC
DNA 2: TGGTGGCTACGACGGGATT
B30: UUUACUA (DNA:RNA)
RNA: B10 RNA with C25U, C27U, G29C, G30U, C31A
DNA 1: CAATCTGAATTCCGGTCTCCC
DNA 2: TGGTGGCTACGACGGGATT
B31: CUCCAAG (DNA:RNA)
RNA: B10 RNA with A28C, G29A, G30A, C31G
DNA 1: CAATCTGAATTCCGGTCTCCC
DNA 2: TGGTGGCTACGACGGGATT

Residue numbers refer to the chain shown, from its start. The list shows a part of the results.

For this test, the target named is T1, RBFOX1 RRM (Homo sapiens, UniProt Q9NWB1 109-208).
T1 sequence: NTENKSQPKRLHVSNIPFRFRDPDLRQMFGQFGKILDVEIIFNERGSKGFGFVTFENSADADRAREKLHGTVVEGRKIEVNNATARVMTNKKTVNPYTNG
In words: EMSA; HiTS-Eq, 1 nM pool, 10 min; buffer printed only for the single-RNA assays: 10 mM Tris pH 7.5, 150 mM NaCl, 3.4 mM EDTA, 0.001% NP-40, 30 C. The settings on record: tags: His6 N-terminal (pET28a); label: 5' 32P. The gist of the method: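 Relative association constants, normalised to the cognate motif, were derived by comparing read counts of each RNA species with those of the control reaction. The RNA sequenced was the free fraction, separated by 8% native PAGE after a 10 min equilibration in 50 µL of 1 nM 5′-radiolabelled RNA (7 randomized nucleotides) with increasing concentrations of purified wild-type or mutant RbFox RRM.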
In general terms: A gel shift assay detects complexes by their altered migration in electrophoresis.
With B1, the binding signal was 0.0139 KA relative to UGCAUGU.
For B2 the value was 0.0153 KA relative to UGCAUGU.
Next, B3: 0.00774 KA relative to UGCAUGU; B4: 0.00726 KA relative to UGCAUGU; B5: 0.0122 KA relative to UGCAUGU.
For B6 the value was 0.013 KA relative to UGCAUGU; for B7, 0.0255 KA relative to UGCAUGU.
On to B8, for which the binding signal is 0.0198 KA relative to UGCAUGU.
In the case of B9, the binding signal is 0.00462 KA relative to UGCAUGU.
For B10 the value was 0.00843 KA relative to UGCAUGU; for B11, 0.00767 KA relative to UGCAUGU.
For B12 the value was 0.00732 KA relative to UGCAUGU; for B13, 0.0105 KA relative to UGCAUGU; for B14, 0.00282 KA relative to UGCAUGU.
Next, B15: 0.00907 KA relative to UGCAUGU.
B16: the binding signal was 0.0113 KA relative to UGCAUGU.
Next, B17: 0.00819 KA relative to UGCAUGU; B18: 0.00658 KA relative to UGCAUGU.
In the case of B19, the binding signal is 0.00344 KA relative to UGCAUGU.
With B20, the binding signal is 0.00899 KA relative to UGCAUGU.
Next, B21: 0.012 KA relative to UGCAUGU.
Next, B22: 0.0102 KA relative to UGCAUGU; B23: 0.00887 KA relative to UGCAUGU; B24: 0.0169 KA relative to UGCAUGU.
For B25 the value was 0.00394 KA relative to UGCAUGU.
For the molecule B26, the binding signal is 0.0156 KA relative to UGCAUGU.
Next, B27: 0.00731 KA relative to UGCAUGU; B28: 0.00521 KA relative to UGCAUGU; B29: 0.00529 KA relative to UGCAUGU.
For B30 the value was 0.00506 KA relative to UGCAUGU.
Consider B31, for which the binding signal was 0.00188 KA relative to UGCAUGU.

The record behind these values is article PMC9911399, “Two distinct binding modes provide the RNA-binding protein RbFox with extraordinary sequence specificity”.
